The record followed here is PubChem BioAssay AID1508642 (National Center for Advancing Translational Sciences (NCATS), 2021).

In all, about 43,000 compounds went through this assay and about 200 (0.47%) were called active. Roughly 12% stayed inconclusive and do not appear here. Calls come from the whole dose curve; as a rule, active = well fitted cell-killing curve with a large enough effect; inconclusive = small, poorly fitted or top-dose-only effect, or effect the other way; inactive = flat fitted curve, though single readings scatter. The list shows a part of the results.
% is set by controls: 0 for no effect and ±100 for the full control effect.

The experiment can be described thus: Cell viability qHTS assay in S16 Pmp22-F2sN cells. Note: nearly all actives have a fitted effect of over 65% in size. Particulars: S16 Pmp22-F2sN Schwann cells (luciferase reporters placed in the Pmp22 gene) viability, CellTiter-Glo, 24 h; series mostly up to 57.5 µM; activity change, negative = cytotoxicity: at the top concentration. The gist of the method:
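Seed 500-1,000 S16 Pmp22-F2sN cells per well in phenol-red-free DMEM with 10% heat-inactivated FBS; pin-add 23 nL compound; incubate 24 h at 37C; add CellTiter-Glo, wait 15 min protected from light; read luminescence.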
(Quantitative high-throughput screening tests each substance at several concentrations.)
Consider `Cc1nn(-c2ccc3nnc(C)n3n2)c(C)c1CCC(=O)Nc1ccc(OC(F)(F)F)cc1`, for which the “activity change, negative = cytotoxicity” value was inactive: 6.35%.
For `NC(=O)Cn1c(=O)n(CCCCCC(=O)NCc2ccccc2)c(=O)c2sccc21`, the “activity change, negative = cytotoxicity” value was inactive: 2.41%.
Consider `COc1ccc(-n2c(=O)c3ccccc3n(Cc3ccccc3C)c2=O)c(OC)c1`, for which the “activity change, negative = cytotoxicity” value was inactive: 2.19%.
Take `Cc1ccc(-n2nc(CO)c(C(=O)NCCCc3ccccc3)n2)cc1`: the “activity change, negative = cytotoxicity” value was inactive: -2.79%.
Then `CCOc1ccc(C(=O)c2cnc3ccc(Cl)cc3c2S(=O)(=O)c2ccc(C)cc2)cc1`, with inactive: -22.7%.
`CCc1ccccc1Nc1nc2cc(Cl)c(Cl)cc2nc1-n1nc(C)cc1C`: the “activity change, negative = cytotoxicity” value is inactive: 2.67%.
Consider `CSc1ccc(CNC(=O)CCn2c(=O)c3cccn3c3ccc(F)cc32)cc1`, for which the “activity change, negative = cytotoxicity” value was inactive: 3.8%.
With `O=C(CSc1nnc2ccc3ccccc3n12)c1ccc(F)cc1`, the “activity change, negative = cytotoxicity” value was inactive: -2.49%.
For `O=c1c2ccccc2n(Cc2ccccc2F)c(=O)n1-c1cccc(F)c1`, the “activity change, negative = cytotoxicity” value was inactive: 12.9%.
Turning to `Cc1cccc(NC(=O)c2ccc(-c3nc(CSc4ccccc4)c(C)o3)cc2)c1C`, the “activity change, negative = cytotoxicity” value is inactive: -4.07%.
On to `COc1ccc(C(=O)Nc2ccc(-c3nc4ccccc4s3)cc2C)cc1Cl`, for which the “activity change, negative = cytotoxicity” value was inactive: -27.7%.
Turning to `COc1ccc(C(=O)N2CCC(c3nc(-c4ccc(S(=O)(=O)N5CCCC5)cc4)no3)CC2)cc1`, the “activity change, negative = cytotoxicity” value was inactive: -12.7%.
As to `COC(=O)c1cc2occc2n1Cc1cccc(C)c1`, the “activity change, negative = cytotoxicity” value is inactive: 0.516%.
For `Cc1ccc(C)c(CN2C(=O)c3ccccc3S(=O)(=O)c3ccc(C(=O)N4CCN(c5ccccc5F)CC4)cc32)c1`, the “activity change, negative = cytotoxicity” value is inactive: 1.81%.
Then `COc1ccc(CNC(=O)CCc2nnc3n(CC(C)C)c(=O)c4ccccc4n23)cc1`, with inactive: 11.3%; and `CCS(=O)(=O)N1CCc2cc(C(=O)Nc3cc(C(F)(F)F)ccc3Cl)ccc21`, with inactive: -7.78%.
With `COc1cccc(NC(=O)Cn2c(=O)n(CCCCC(=O)NCCc3ccccc3)c(=O)c3ccccc32)c1` the figure was inactive: 1.25%; with `COc1ccc(C)cc1NS(=O)(=O)c1ccc2[nH]c(=O)c(=O)[nH]c2c1`, inactive: 0.245%.
For the molecule `CCn1ccc2cc(S(=O)(=O)N3CCCN(C(=O)NCCOC)CC3)ccc21`, the “activity change, negative = cytotoxicity” value was inactive: 13.3%.
On to `CCc1ccccc1Nc1nc2ccccc2n2cnnc12`, for which the “activity change, negative = cytotoxicity” value is inactive: -13%.
As for `COc1ccc(CCNC(=O)CCn2c(=O)c3cccn3c3cccnc32)cc1OC`, the “activity change, negative = cytotoxicity” value is inactive: 5.18%.
As to `CCOc1cc(C(=O)N2CCC(c3ccncc3)CC2)cc(OCC)c1OCC`, the “activity change, negative = cytotoxicity” value is inactive: 3.47%.
`COc1ccc(Cl)cc1NC(=O)CSc1nc(-c2ccco2)cc(C(F)(F)F)n1`: the “activity change, negative = cytotoxicity” value is inactive: -2.14%.
On to `NC(=O)C1CCN(C(=O)Cn2c(-c3cccs3)cc3ccccc32)CC1`, for which the “activity change, negative = cytotoxicity” value was inactive: -4.49%.
Consider `CCOc1ccc(NC(=O)CN2CCN(CC(=O)Nc3ccccc3OCC)CC2)cc1`, for which the “activity change, negative = cytotoxicity” value was inactive: -15.4%.
For `COc1ccc(-c2oc3ncn4nc(-c5ccccc5C)nc4c3c2-c2ccc(OC)cc2)cc1`, the “activity change, negative = cytotoxicity” value is inactive: -0.307%.
Consider `Cc1cccc(C)c1OC(=O)CSc1nnc(-c2cccs2)o1`, for which the “activity change, negative = cytotoxicity” value is inactive: 1.71%.
For `COc1ccccc1-n1nc(-c2ccccc2)c2cnc3cc(C(F)(F)F)ccc3c21`, the “activity change, negative = cytotoxicity” value is inactive: 27.4%.
Then `CCOC(=O)c1ccc(NC(=O)COC(=O)c2cn(CC)c3nc(C)ccc3c2=O)cc1`, with inactive: -4.7%; and `CC1CN(S(=O)(=O)c2ccc3c(c2)NC(=O)CC(=O)N3)c2ccccc2O1` (stereo not drawn), with inactive: -11.1%.
Consider `O=c1cc(-c2ccccc2)n2c(SCc3cccc([N+](=O)[O-])c3)nnc2[nH]1`, for which the “activity change, negative = cytotoxicity” value is inactive: -0.183%.
Take `CCOC(=O)CN1C(=O)c2cccnc2Oc2ccccc21`: the “activity change, negative = cytotoxicity” value was inactive: 11.1%.
With `O=C(CCCn1c(=O)c2sccc2n(Cc2cccc(Cl)c2)c1=O)NCc1ccc2c(c1)OCO2` the figure was inactive: 12.1%; with `Cc1cc(C)cc(NC(=O)CSCc2cc(=O)c3ccc(C)c(C)c3[nH]2)c1`, inactive: 5.69%.
For `CNS(=O)(=O)c1cn(CC(=O)N2CCN(c3cc(C)ccc3C)CC2)cc1S(=O)(=O)NC`, the “activity change, negative = cytotoxicity” value was inactive: -7.99%.
On to `Cc1nn2c(C)c(C(=O)NCC(C)c3ccccc3)cnc2c1-c1ccccc1` (stereo not drawn), for which the “activity change, negative = cytotoxicity” value was inactive: 1.42%.
Consider `O=C(Nc1c2c(nn1-c1ccc(Cl)cc1)CS(=O)(=O)C2)c1ccccc1F`, for which the “activity change, negative = cytotoxicity” value is inactive: -1.93%.
Turning to `O=C(NCCc1nc2ccccc2n1CCCOc1ccc(Cl)cc1)C1CCCCC1`, the “activity change, negative = cytotoxicity” value was inactive: -29.7%.
As for `COc1ccc(C2NC(=O)N(C)C3=C2C(=O)N(c2ccc(F)cc2)C3)cc1` (stereo not drawn), the “activity change, negative = cytotoxicity” value was inactive: -10%.
`Fc1ccc(Cn2c(-c3cccc(Br)c3)nc3ccccc32)cc1`: the “activity change, negative = cytotoxicity” value was inactive: 2.37%.
Then `CCOc1ccc(CCNC(=O)Cn2nc(CC)n3c(cc4sccc43)c2=O)cc1`, with inactive: 5.61%; and `CCC(C(=O)NCc1ccccc1Cl)n1nc(C)c2sc3ccccc3c2c1=O` (stereo not drawn), with inactive: 0.824%; and `Cc1ccc(NC(=O)c2sc(-n3nc(C)c(Cc4ccc5c(c4)OCO5)c3C)nc2C)cc1C`, with inactive: 0.716%.
On to `CCOc1cc(C2c3c(-c4ccccc4O)n[nH]c3C(=O)N2Cc2cccnc2)ccc1O` (stereo not drawn), for which the “activity change, negative = cytotoxicity” value is inactive: -17.2%.
In the case of `Cc1cccc(NC(=O)CSc2nccn2-c2cccc(Cl)c2)c1C`, the “activity change, negative = cytotoxicity” value is inactive: 2.13%.
For `CCn1nc(C)c2c(-c3ccccc3)cc(=O)n(C(C)C(=O)NCCc3ccccc3)c21` (stereo not drawn), the “activity change, negative = cytotoxicity” value was inactive: 10.9%.
As to `CCc1nn2c(=O)cc(COC(=O)c3ccccc3NC(=O)c3cccs3)nc2s1`, the “activity change, negative = cytotoxicity” value is inactive: 11.9%.
On to `Cc1cc(=O)oc2c3c(ccc12)OCN(Cc1ccc(Cl)cc1)C3`, for which the “activity change, negative = cytotoxicity” value was inactive: -0.145%.
